This is one part of the list. Most values come without repeats; read them as rough.
Tests used:
Test in all cases: cell count relative to DMSO control; melanoma cells; higher = more viable cells
Conditions in all cases: library dose: standard library concentration; 72 h
501Mel = system: 501Mel
A101D = system: A101D
A2058 = system: A2058
A375 = system: A375
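Also: cells treated in 1,536-well plates, then fixed and DAPI-stained, with nuclei counted from automated high-throughput microscope images.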

Row | SMILES | cell count (501Mel) | cell count (A101D) | cell count (A2058) | cell count (A375)
1 | C[C@]12O[C@H](C[C@]1(O)CO)n1c3ccccc3c3c4c(c5c6ccccc6n2c5c31)CNC4=O [Lestaurtinib] + Oc1nc(-c2ccc(C(F)(F)F)cc2)nc2c1CSCC2 [XAV939] (first compound 0.02 µM, partner dose 10 µM) | 70.9% | 85.3% | 78.4% | 80.1%
2 | Cn1cc(C2=C(c3cn(C4CCN(Cc5ccccn5)CC4)c4ccccc34)C(=O)NC2=O)c2ccccc21 [Enzastaurin] + O=C(Nc1ccccc1)c1cc([N+](=O)[O-])ccc1Cl [GW9662] (first compound 4 µM, partner dose 10 µM) | 60.6% | 22.7% | 71.6% | 105%
3 | C[As](C)SC[C@H](NC(=O)CC[C@H](N)C(=O)O)C(=O)NCC(=O)O [Darinaparsin] + CC(C)CCN1c2nc(Nc3cc(F)c(O)c(F)c3)ncc2N(C)C(=O)C1C [BID1870] (first compound 2 µM, partner dose 1 µM) | 65.3% | 59.7% | 80.9% | 87.4%
4 | Cn1cc(C2=C(c3cn(C4CCN(Cc5ccccn5)CC4)c4ccccc34)C(=O)NC2=O)c2ccccc21 [Enzastaurin] + O=C(Oc1ccc([N+](=O)[O-])cc1)N1CCC(C(O)(c2ccc3c(c2)OCO3)c2ccc3c(c2)OCO3)CC1 [JZL184] (first compound 4 µM, partner dose 5 µM) | 82.1% | 73.5% | 73.7% | 83.9%
5 | N.N.[Cl][Pt][Cl] [cisplatin] + COc1cc2ncnc(Nc3ccc(Oc4ccccc4)cc3)c2cc1OC [SrcI1] (first compound 8 µM, partner dose 10 µM) | 97.9% | 62.4% | 114% | 120%
6 | N.N.[Cl][Pt][Cl] [cisplatin] + Cc1cc(SCc2sc(-c3ccc(C(F)(F)F)c(F)c3)nc2C)ccc1OCC(=O)O [GW0742] (first compound 8 µM, partner dose 10 µM) | 85.8% | 89.3% | 96.1% | 101%
7 | C[As](C)SC[C@H](NC(=O)CC[C@H](N)C(=O)O)C(=O)NCC(=O)O [Darinaparsin] + O=C(Nc1ccccc1)c1cc([N+](=O)[O-])ccc1Cl [GW9662] (first compound 2 µM, partner dose 10 µM) | 61.5% | 79.8% | 78.9% | 117%
8 | C[C@]12O[C@H](C[C@]1(O)CO)n1c3ccccc3c3c4c(c5c6ccccc6n2c5c31)CNC4=O [Lestaurtinib] + Cc1cc(SCc2sc(-c3ccc(C(F)(F)F)c(F)c3)nc2C)ccc1OCC(=O)O [GW0742] (first compound 0.02 µM, partner dose 10 µM) | 78% | 93.4% | 108% | 120%
9 | C[C@]12O[C@H](C[C@]1(O)CO)n1c3ccccc3c3c4c(c5c6ccccc6n2c5c31)CNC4=O [Lestaurtinib] + CCCCCCCCCCCC1=C(O)C(=O)C=C(O)C1=O [Embelin] (first compound 0.02 µM, partner dose 6 µM) | 65.1% | 71.9% | 114% | 99.6%
10 | N.N.[Cl][Pt][Cl] [cisplatin] + COc1ccc(-c2ccc3c(N4CCOCC4)nc(N4C[C@@H](C)O[C@@H](C)C4)nc3n2)cc1CO [KU0063794] (first compound 8 µM, partner dose 0.1 µM) | 79.1% | 78% | 89.1% | 89.7%
11 | Cn1cc(C2=C(c3cn(C4CCN(Cc5ccccn5)CC4)c4ccccc34)C(=O)NC2=O)c2ccccc21 [Enzastaurin] + Oc1cc(-c2nc(-c3ccccc3)[nH]c2-c2ccncc2)ccc1Cl [L779450] (first compound 4 µM, partner dose 1 µM) | 74% | 81.8% | 97.1% | 94.9%
12 | C[C@]12O[C@H](C[C@]1(O)CO)n1c3ccccc3c3c4c(c5c6ccccc6n2c5c31)CNC4=O [Lestaurtinib] + Oc1cc(-c2nc(-c3ccccc3)[nH]c2-c2ccncc2)ccc1Cl [L779450] (first compound 0.02 µM, partner dose 1 µM) | 45.1% | 53.6% | 78.4% | 88.2%
13 | C[As](C)SC[C@H](NC(=O)CC[C@H](N)C(=O)O)C(=O)NCC(=O)O [Darinaparsin] + COc1ccc2c(c1)CCC1C2CCC2(C)C(NCCCCCCN3C(=O)C=CC3=O)CCC12 [U73122] (first compound 2 µM, partner dose 2 µM) | 128% | 110% | 88% | 87.6%

— the supplement of paper PMC4604168 (melanoma cell lines)
